# Results taken from a collection of fitness landscapes (doi:10.1126/science.1257360).
# Some of the results follow.
# B1: PhoQ; a variant is named by its letters at X, in order, P23837 (parent)
# chain: MKKLLRLFFPLSLRVRFLLATAAVVLVLSLAYGMVALIGYSVSFDKTTFRLLRGESNLFYTLAKWENNKLHVELPENIDKQSPTMTLIYDENGQLLWAQRDVPWLMKMIQPDWLKSNGFHEIEADVNDTSLLLSGDHSIQQQLQEVREDDDDAEMTHSVAVNVYPATSRMPKLTIVVVDTIPVELKSSYMVWSWFIYVLSANLLLVIPLLWVAAWWSLRPIEALAKEVRELEEHNRELLNPATTRELTSLVRNLNRLLKSERERYDKYRTTLTDLTHSLKTPLXXLQXXLRSLRSEKMSVSDAEPVMLEQISRISQQIGYYLHRASMRGGTLLSRELHPVAPLLDNLTSALNKVYQRKGVNISLDISPEISFVGEQNDFVEVMGNVLDNACKYCLEFVEISARQTDEHLYIVVEDDGPGIPLSKREVIFDRGQRVDTLRPGQGVGLAVAREITEQYEGKIVAGESMLGGARMEVIFGRQHSAPKDE
# Variants of: B1
# Experiment: enrichment ratio after two sorts for PhoP signalling (ratio (wild type AVST 3.29)); higher = more functional
# Conditions: with PhoP (E. coli)
row,Variant,enrichment ratio
1,RVGC,≤ 0.25
2,KMVQ,≤ 0.25
3,KHQI,≤ 0.25
4,DVDW,≤ 0.25
5,KKSS,≤ 0.25
6,GWHM,≤ 0.25
7,EGDM,≤ 0.25
8,ETQR,≤ 0.25
9,EFYK,≤ 0.25
10,RTAH,≤ 0.25
11,TKNN,≤ 0.25
12,RPRM,≤ 0.25
13,IYHV,≤ 0.25
14,QASW,≤ 0.25
15,LYDE,≤ 0.25
16,PSQP,≤ 0.25
17,RGDC,≤ 0.25
18,MRGN,≤ 0.25
19,PCAP,≤ 0.25
20,WTRQ,≤ 0.25
21,NRQE,≤ 0.25
22,SRPP,≤ 0.25
23,GWFF,≤ 0.25
24,FVHL,≤ 0.25

row,Variant,enrichment ratio
1,PATI,≤ 0.25
2,WETH,≤ 0.25
3,IWTL,≤ 0.25
4,RSFH,≤ 0.25
5,DMYG,≤ 0.25
6,WPKL,≤ 0.25
7,DGAA,≤ 0.25
8,KHNI,≤ 0.25
9,TDWI,≤ 0.25
10,TQET,≤ 0.25
11,AKAF,5.84
12,AAAM,10.1
13,GRYW,≤ 0.25
14,QGKI,≤ 0.25
15,TMPA,≤ 0.25
16,YNNK,≤ 0.25
17,NMIG,≤ 0.25
18,DDDQ,≤ 0.25
19,QYRN,≤ 0.25
20,NPID,≤ 0.25
21,SIWT,≤ 0.25
22,VSPS,≤ 0.25
23,VRER,≤ 0.25
24,FRCC,≤ 0.25

row,Variant,enrichment ratio
1,RIQQ,≤ 0.25
2,RKCK,≤ 0.25
3,RHDQ,≤ 0.25
4,GIPL,≤ 0.25
5,LMPP,≤ 0.25
6,NLPF,≤ 0.25
7,GNCP,≤ 0.25
8,AMQS,≤ 0.25
9,MESH,4.64
10,DSYE,≤ 0.25
11,HDNK,≤ 0.25
12,WNTH,≤ 0.25
13,KMFK,≤ 0.25
14,VTQD,≤ 0.25
15,YKSS,≤ 0.25
16,MRTR,≤ 0.25
17,RDAY,≤ 0.25
18,ELFI,≤ 0.25
19,RKDC,≤ 0.25
20,ISKH,≤ 0.25
21,AARL,≤ 0.25
22,PLLS,≤ 0.25
23,HTYQ,≤ 0.25
24,TQTV,7.38

row,Variant,enrichment ratio
1,RHEE,≤ 0.25
2,WPMR,≤ 0.25
3,DLGR,≤ 0.25
4,DYEC,≤ 0.25
5,HDIK,≤ 0.25
6,QNRG,≤ 0.25
7,HHFF,≤ 0.25
8,PLGS,≤ 0.25
9,YLLN,≤ 0.25
10,KKEH,≤ 0.25
11,NNVR,≤ 0.25
12,LCWE,≤ 0.25
13,DYFM,≤ 0.25
14,DFQD,≤ 0.25
15,GECY,≤ 0.25
16,WGAF,≤ 0.25
17,VGAL,0.829
18,GHHW,≤ 0.25
19,WVMS,≤ 0.25
20,EYYG,≤ 0.25
21,PEWK,≤ 0.25
22,PLVM,≤ 0.25
23,KAYK,≤ 0.25
24,APKK,≤ 0.25

row,Variant,enrichment ratio
1,DGSH,≤ 0.25
2,FELF,≤ 0.25
3,QTKF,≤ 0.25
4,NFVW,≤ 0.25
5,FHNY,≤ 0.25
6,LGLS,≤ 0.25
7,EKDK,≤ 0.25
8,FTFA,≤ 0.25
9,TRSS,0.318
10,TALS,10.9
11,TYTV,0.992
12,SHRT,≤ 0.25
13,DYPR,≤ 0.25
14,DLSP,≤ 0.25
15,RVRF,≤ 0.25
16,GKVK,≤ 0.25
17,FMCV,≤ 0.25
18,HFMN,≤ 0.25
19,LMAK,≤ 0.25
20,IVCV,≤ 0.25
21,AIFH,≤ 0.25
22,YPCK,≤ 0.25
23,VCEK,≤ 0.25
24,VDNV,≤ 0.25

row,Variant,enrichment ratio
1,CQFM,≤ 0.25
2,AQEM,≤ 0.25
3,WYEY,≤ 0.25
4,NYPF,≤ 0.25
5,KTSG,≤ 0.25
6,NMTW,≤ 0.25
7,NSYI,≤ 0.25
8,IHTI,≤ 0.25
9,DAIR,≤ 0.25
10,YRHW,≤ 0.25
11,GAPL,≤ 0.25
12,WRQK,≤ 0.25
13,LNLM,≤ 0.25
14,QNYP,≤ 0.25
15,HNKM,≤ 0.25
16,LVSF,≤ 0.25
17,VSQT,≤ 0.25
18,WRHQ,≤ 0.25
19,NHAN,≤ 0.25
20,ENAP,≤ 0.25
21,PIGH,≤ 0.25
22,YTHF,≤ 0.25
23,VHFT,≤ 0.25
24,TNLR,0.738

row,Variant,enrichment ratio
1,FSKF,≤ 0.25
2,ELKL,≤ 0.25
3,STRD,≤ 0.25
4,PFRD,≤ 0.25
5,IVNN,≤ 0.25
6,RVHQ,≤ 0.25
7,WLNQ,≤ 0.25
8,TCHL,8.17
9,WDVD,≤ 0.25
10,FFSS,≤ 0.25
11,NGDD,≤ 0.25
12,IHYD,≤ 0.25
13,AFGD,≤ 0.25
14,DNCY,≤ 0.25
15,YDLG,≤ 0.25
16,LAYW,≤ 0.25
17,MQFS,3.3
18,VQWR,≤ 0.25
19,PFMI,≤ 0.25
20,WGMW,≤ 0.25
21,TQTL,9.51
22,VHPQ,≤ 0.25
23,RFGW,≤ 0.25
24,WDGC,≤ 0.25

row,Variant,enrichment ratio
1,GITL,7.35
2,INYV,≤ 0.25
3,IMRH,≤ 0.25
4,AGRF,≤ 0.25
5,AQAY,15.2
6,ASMC,12.1
7,MQLS,6.18
8,WKSV,≤ 0.25
9,QYTP,≤ 0.25
10,NTWT,≤ 0.25
11,LQWV,≤ 0.25
12,FQRT,≤ 0.25
13,KASI,≤ 0.25
14,SAGD,≤ 0.25
15,WNAR,≤ 0.25
16,MNVY,≤ 0.25
17,NFRI,≤ 0.25
18,IYKC,≤ 0.25
19,AHRK,≤ 0.25
20,PMQK,≤ 0.25
21,ITTF,≤ 0.25
22,MINI,≤ 0.25
23,ACMP,1.45
24,NHST,≤ 0.25

row,Variant,enrichment ratio
1,AQYV,≤ 0.25
2,QKHP,≤ 0.25
3,YLAY,0.285
4,PLLC,≤ 0.25
5,CRSL,≤ 0.25
6,DLGM,1.55
7,KNFC,≤ 0.25
8,LTTQ,≤ 0.25
9,AEDS,≤ 0.25
10,HMPM,≤ 0.25
11,GEVY,15.9
12,EFCR,≤ 0.25
13,ESCK,≤ 0.25
14,FWAE,≤ 0.25
15,VPEG,≤ 0.25
16,KPNP,≤ 0.25
17,IGNY,≤ 0.25
18,LMRN,≤ 0.25
19,PGLK,≤ 0.25
20,VRHS,≤ 0.25
21,APMP,≤ 0.25
22,DVGF,≤ 0.25
23,TTAH,8.28
24,LKKD,≤ 0.25

row,Variant,enrichment ratio
1,MDTA,≤ 0.25
2,KAAL,1.81
3,KHDA,≤ 0.25
4,RTHV,≤ 0.25
5,IIVY,≤ 0.25
6,DNGL,≤ 0.25
7,NPVW,≤ 0.25
8,AHMH,≤ 0.25
9,MHRS,≤ 0.25
10,CQTP,≤ 0.25
11,LWNS,≤ 0.25
12,IYCN,≤ 0.25
13,QFFH,≤ 0.25
14,NKCY,≤ 0.25
15,IQML,≤ 0.25
16,EGIY,≤ 0.25
17,YYHD,≤ 0.25
18,LHWC,≤ 0.25
19,VAFQ,0.889
20,VFQK,≤ 0.25
21,EKVT,≤ 0.25
22,HWEE,≤ 0.25
23,YDRI,≤ 0.25
24,WSFL,≤ 0.25

row,Variant,enrichment ratio
1,EAWR,≤ 0.25
2,TFFF,≤ 0.25
3,GHWD,≤ 0.25
4,WNEG,≤ 0.25
5,DVKG,≤ 0.25
6,GVST,≤ 0.25
7,RKMT,≤ 0.25
8,YLVT,≤ 0.25
9,NINC,≤ 0.25
10,NFWV,≤ 0.25
11,WVQR,≤ 0.25
12,AKEF,≤ 0.25
13,IWAG,≤ 0.25
14,SEKD,≤ 0.25
15,EPDC,≤ 0.25
16,GDKP,≤ 0.25
17,TDTY,≤ 0.25
18,TQCH,9.18
19,FMYN,≤ 0.25
20,RCWN,≤ 0.25
21,YARD,≤ 0.25
22,FDID,≤ 0.25
23,RDPY,≤ 0.25
24,RMVG,≤ 0.25

row,Variant,enrichment ratio
1,PWDN,≤ 0.25
2,GVLL,10.7
3,AGAY,7.02
4,WRFS,≤ 0.25
5,SLGV,≤ 0.25
6,YIGL,0.339
7,KDTH,≤ 0.25
8,QHQY,≤ 0.25
9,VDMR,≤ 0.25
10,LNYR,≤ 0.25
11,SMCF,7.74
12,GCTN,≤ 0.25
13,LVHK,≤ 0.25
14,GLNF,≤ 0.25
15,PEIG,≤ 0.25
16,EIFF,≤ 0.25
17,VWSQ,≤ 0.25
18,QFQR,≤ 0.25
19,FYKM,≤ 0.25
20,ICIF,≤ 0.25
21,VGFY,≤ 0.25
22,SASM,10.2
23,VNED,≤ 0.25
24,VPSA,≤ 0.25

row,Variant,enrichment ratio
1,GEMS,4.64
2,SAEF,≤ 0.25
3,NMDL,≤ 0.25
4,IGVE,≤ 0.25
5,MMLQ,≤ 0.25
6,RCWS,≤ 0.25
7,TYIT,≤ 0.25
8,TRYT,≤ 0.25
9,LNHA,≤ 0.25
10,DHEM,≤ 0.25
11,ENMC,≤ 0.25
12,NNQS,≤ 0.25
13,KLCV,≤ 0.25
14,AMRS,≤ 0.25
15,PMKA,≤ 0.25
16,GLPA,0.356
17,RAFI,≤ 0.25
18,IRGD,≤ 0.25
